# The full ranking holds about 33,000 sequences; the median of “E-score (-0.5 to 0.5)” is about -0.032, and the highest 2% start at about 0.36. The list shows a part of the results.
# Target: T1, Sko1 (UniProt Q02100)
# T1 sequence: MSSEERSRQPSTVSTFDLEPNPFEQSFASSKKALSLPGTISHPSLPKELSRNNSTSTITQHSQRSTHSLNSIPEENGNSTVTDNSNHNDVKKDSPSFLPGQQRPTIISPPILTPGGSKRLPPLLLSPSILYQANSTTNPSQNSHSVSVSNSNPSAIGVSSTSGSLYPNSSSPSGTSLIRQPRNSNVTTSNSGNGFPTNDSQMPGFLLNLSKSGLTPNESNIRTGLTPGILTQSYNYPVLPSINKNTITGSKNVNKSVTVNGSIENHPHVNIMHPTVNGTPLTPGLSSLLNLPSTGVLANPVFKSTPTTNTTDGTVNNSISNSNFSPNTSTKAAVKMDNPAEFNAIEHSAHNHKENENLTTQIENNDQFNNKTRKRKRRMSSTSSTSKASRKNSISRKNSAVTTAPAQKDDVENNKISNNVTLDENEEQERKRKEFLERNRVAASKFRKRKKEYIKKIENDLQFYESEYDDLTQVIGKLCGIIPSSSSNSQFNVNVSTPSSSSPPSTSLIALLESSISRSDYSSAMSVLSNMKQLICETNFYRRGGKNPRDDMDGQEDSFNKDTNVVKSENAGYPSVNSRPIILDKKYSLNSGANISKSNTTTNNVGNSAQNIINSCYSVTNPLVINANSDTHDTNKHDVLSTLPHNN
# Experiment: PBM E-score (8-mer binding enrichment) (E-score (-0.5 to 0.5)); higher = stronger / more preferred TF binding; most listed sequences are background and not binding sites
# Settings: protein concentration: 200 nM; construct: GST-full length
# How it was run: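 Detection of bound protein used fluorescent anti-GST, with scans normalised by masliner. The proteins were GST-tagged yeast transcription factors applied at about 100-200 nM to universal all-10-mer Agilent arrays made double-stranded by primer extension. Each ungapped eight-base word, pooled with its reverse complement, was scored with an E-score from the Universal PBM Analysis Suite.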
row,Sequence,PBM E-score
1,AGACGGAG,-0.264
2,ATACGCTA,0.117
3,GATATGAA,0.195
4,ATCTTAGA,0.0246
5,ATTATGTA,0.398
6,CACTAATG,0.0154
7,ACCAGTCT,-0.17
8,ACTCCCCC,-0.326
9,ACTTGAAC,0.106
10,GTGACGCA,0.457
11,AAGTATAC,0.175
12,ACGTCTGG,0.331
13,CGTCTCTC,-0.0438
14,ACCGGTTG,-0.079
15,ACTCTTCA,-0.00926
16,AACTCTTG,-0.0712
17,AACACGGC,-0.255
18,AGTCTGGG,-0.218
19,ATAAGGCC,-0.0706
20,AGCAATGC,0.0687
21,AGATGGGA,-0.238
22,AGTCGATA,-0.0315
23,AGACAGAT,0.0457
24,GCGACTCC,-0.224
25,TGTCATAA,0.325

row,Sequence,PBM E-score
1,ATTCCTAA,0.167
2,CTCTGCAA,-0.0293
3,AAACGAAG,0.00778
4,CGACGTTC,-0.0745
5,GATCAAAA,0.0898
6,GTGCGCCA,-0.0761
7,TGGCTAAA,-0.0287
8,GTAAAAAA,0.0568
9,ACTCCTCG,-0.0285
10,ACAGTGCG,0.0112
11,GAGCGATA,-0.0889
12,AAGAATAT,-0.0449
13,GCGCACAA,0.0465
14,CTAGTTGC,-0.0258
15,AGTCGTTA,0.0683
16,CGTCCCCC,-0.268
17,ACGGTGTA,0.00144
18,ATAATCGG,0.0781
19,GCGGAAAC,-0.261
20,CCTTGTTA,0.00091
21,ATACCATC,0.0763
22,ATCTGATG,-0.146
23,GTATCTAA,0.201
24,GAACATAC,0.2
25,ACAAAAAC,0.138

row,Sequence,PBM E-score
1,GGCAACAC,-0.0781
2,AGGCAGTA,-0.129
3,TAACGAAA,0.252
4,TCCGTACA,0.0313
5,GACTACAA,-0.0168
6,ACGAGCGA,0.108
7,CAGGAGGA,-0.283
8,GAATGGCA,-0.0995
9,ATCTCGAC,0.0145
10,CGCAGATA,-0.00801
11,AAATTTAC,0.286
12,GAAAAACC,0.00051
13,CTCGGTGC,-0.165
14,CGCACTGC,0.0583
15,AAGCGGGG,-0.2
16,CGTTTAAG,0.0295
17,ACGCAGGG,0.292
18,AACCATCG,0.126
19,AGCTCAGC,0.0708
20,GGTACCGA,-0.303
21,CACAGCTG,-0.125
22,CTCACGGC,-0.147
23,ATTGTACC,0.106
24,TACGCCGA,-0.0247
25,GGCACTTA,-0.197

row,Sequence,PBM E-score
1,AAATAGGG,-0.196
2,AGTCTTAG,-0.28
3,CAGTTAGG,0.0181
4,ACCTTGAG,0.0663
5,ACCAGGGT,-0.354
6,CAGAATGG,0.00443
7,GGGTAAAC,-0.107
8,GAACAGTA,0.0956
9,CCGGCCCC,-0.331
10,GTTATACA,0.22
11,AACTGTAC,0.0739
12,GTGAATCA,0.0223
13,AGCGAATA,0.107
14,CTGATGTA,0.255
15,TCAATGCA,0.131
16,AAATGTGT,0.127
17,AGACGTCT,0.271
18,AGTTCGAG,-0.0377
19,AAATTCAC,0.014
20,ATGATCCC,-0.111
21,CACCGAAG,-0.11
22,GATAAATA,0.129
23,GGCTAAAC,-0.142
24,TGGTTGAA,-0.0168
25,GGGCGCAA,-0.175

row,Sequence,PBM E-score
1,GGATTATA,-0.109
2,AACGTCAC,0.471
3,ATCATGCG,0.0801
4,ATCCTACA,-0.0771
5,CGCAAGGC,-0.0674
6,CGGAGCAC,-0.208
7,CGTAACAG,0.374
8,ACGGGGAG,-0.229
9,ATTCAAAG,0.123
10,CGCGGGTC,-0.0442
11,CAACGACA,0.115
12,CCTTAGTA,-0.102
13,CAGACCTA,0.125
14,AACTCCGC,-0.149
15,CAAAAACG,0.188
16,CTCGAAAA,0.0133
17,CAACCAAG,0.0968
18,CGGGGGCA,-0.24
19,GAACGATA,-0.115
20,ACATGAGC,-0.00402
21,AGTAACAG,-0.0766
22,GACGAATC,0.291
23,CGCTCATA,-0.0863
24,AGATACCC,-0.0725
25,AAGCCCGG,-0.265

row,Sequence,PBM E-score
1,AAACCCTA,-0.103
2,ACCTCTGG,-0.237
3,CAGACCCC,-0.307
4,AGAGATGG,-0.0345
5,ACAAATCA,0.2
6,GTGATAAC,0.201
7,TAGAGAGA,-0.0704
8,CCCCAGGG,-0.401
9,GGATCACA,0.041
10,CAATTGCC,0.0716
11,GCGTCGCC,0.043
12,CACCGCCA,-0.0533
13,CTCCAACC,-0.0963
14,CGGTTCTA,-0.118
15,ATGCCCAC,0.0382
16,AATATAGG,0.168
17,CTGGCTCA,-0.108
18,CGTGGGAC,0.065
19,TCGAACAA,0.171
20,ACATCTGG,-0.063
21,GAAGGAGC,-0.183
22,GAATTGAC,0.0399
23,ATGCCTTG,-0.0855
24,CCAGGGCG,-0.3
25,CTCCACGA,0.0266

row,Sequence,PBM E-score
1,AAAGAGCG,0.0322
2,AACAAGCC,-0.133
3,GCCCCACA,-0.0155
4,GCGGGTCC,-0.162
5,GCTATTCC,-0.128
6,CGTCCTTA,-0.0754
7,ATCTATAG,-0.0108
8,CTGATCCA,-0.136
9,ACATCAAG,0.242
10,CGCGCTCC,-0.121
11,GAGTGCTA,-0.158
12,AACTCCGG,-0.0665
13,AGTTTGTC,-0.0092
14,TGAACCAA,0.108
15,AAATCAAA,0.126
16,ATCGCTAC,-0.0081
17,AGTTACCG,-0.0227
18,ACGGTATG,0.164
19,CATATTCG,0.145
20,GCGTATAA,0.271
21,GTAGACAA,0.114
22,GGACTTGA,-0.142

# From the supplement of paper PMC3334620
